From PubChem BioAssay AID902 (National Center for Advancing Translational Sciences (NCATS), 2007)
In all, about 130,000 compounds went through this assay and about 1,900 (1.5%) were called active. The inconclusive results got no clear call from the source; some entries with a clear call stand among them for comparison. Calls follow the shape of the dose curve; as a rule, active = well fitted cell-killing curve with a large enough effect; inconclusive = small, poorly fitted or top-dose-only effect; inactive = no such curve, though single readings can be large or run the other way. Potencies of inconclusive entries are doubtful fits and often do not repeat.

Assay: qHTS Screen for Compounds that Selectively Target Cancer Cells with p53 Mutations: Cytotoxicity of p53ts Cells at the Nonpermissive Temperature; also: nearly all actives have a fitted effect of over 55% in size
Settings: H1299-p53A138V viability at 39C, ATP luminescence, 24 h; activity change, negative = cell killing: at 46.1 µM (top of the series)
From the text: NIH Chemical Genomics Center [NCGC] NIH Molecular Libraries Screening Centers Network [MLSCN] MLSCN Grant: 1 X01 MH079844-01 Assay Submitter (PI): Dr. SUN, YI, University of Michigan NCGC Assay Overview: Synthetic Lethal Screen for Compounds to Kill Cancer Cells with p53 Mutation. Tumor suppressor gene p53 serves as a major cellular barrier against tumorigenesis. […] The goal of this screening is to identify small molecule probes that selectively kill cancer cells with mutations in p53. This screening was carried out using two lines of H1299 lung cancer cells. The H1299-p53 A138V line express a temperature sensitive p53 mutant (p53ts) in which the mutant p53 protein (A138V) is in the mutant confirmation when grown at 39C (the nonpermissive temperature) and in the wild type conformation when grown at 32C (the permissive temperature). A H1299-neo line (p53 null) grown at both 39C and 32C were used as counter-screens to filter out false positive associated with temperature shifting. The small molecular compounds that selectively target mutant p53-containing cancer cells were selected as candidate probes for further study. A cytotoxicity assay based on the measurement of ATP contents in cells was used in this screen. Concentration-responses of all the compounds in the library collection were determined in qHTS using the cell lines and temperature conditions as above.
NCGC Assay Protocol Summary: Both the H1299-p53A138V and H1299-neo cell lines were provided by Dr.Yi Sun, a PI at the University Michigan. The cells were maintained and cultured at 37C. The resuspended frozen cells were used to plate the cells in the 1536-well assay plates at a density of 600 cells per well in 5 ul medium. The assay plates with the cells were incubated at 37C for 16 to 30 hours before the experiments. The library compounds in DMSO solution were added to the cells in assay plates and incubated 24 hours at 39C (for mutant p53 conformation) or 32C (for normal p53 conformation as control). An ATP_lite assay kit (PerkinElmer) was used to determine the cell viability. Tomaxifen (100uM) was used as the positive control for cell killing. Data were normalized to the controls for basal activity (DMSO only) and 100% killing (100uM tamoxifen). AC50 values were determined from concentration-response data modeled with the standard Hill equation. P53 assay protocol: 1. Reagent; 5 uL H1299-p53A138V or H1299-neo cell cells/well 2. Time; overnight; 37C incubation 3. Compounds; 23 nL; 5.9 nM to 46 uM 4. Controls; 23 nL; Tamoxifen 100 uM 5. Time; 24 hr; 39C incubation 6. Reagent; 3 uL; ATP_Lite reagent 7. Time; 20 min; Room Temperature 8. Detection; Luminescence; Viewlux plate reader Keywords: p53, synthetic lethal, cancer, cell viability, cytotoxicity, H1299 cell line, luminescence, MLSMR, MLSCN, NIH Roadmap, qHTS, NCGC
% is scaled to controls: 0 for no effect and ±100 for the full control effect; potency is read from the fitted curve at half-maximal effect; tags tell the direction and shape of the fitted curve.

SMILES | Potency | activity change, negative = cell killing
Cc1ccc(NC(=O)c2c(NC(=O)C(F)(F)F)sc3c2CCCCC3)cc1 | inconclusive: 25.1 µM [cytotoxic, single point] | –
Cc1nn(-c2ccc(Cl)cc2)c2sc(C(=O)N3CCN(C(=O)c4ccco4)CC3)cc12 | – | inactive: -2.16%
CCC1=Nc2cc(C(=O)NC(C)c3ccccc3)ccc2Sc2ccc(Cl)cc21 (stereo not drawn) | inconclusive: 15.8 µM [cytotoxic, single point] | –
COc1ccc2c(c1)CCc1sc(NC(=O)c3ccc(Cl)cc3)nc1-2 | inconclusive: 10 µM [cytotoxic, single point] | –
Cc1cc(C2=NNC(=NC3CC3)SC2)c(C)n1Cc1ccco1 | active: 12.6 µM | –
CC1CCN(S(=O)(=O)c2cn(CC(=O)Nc3ccc(F)c(Cl)c3)c(=O)c3ccccc23)CC1 | inconclusive: 2 µM [cytotoxic, full curve, poor fit] | –
O=C1CN(C(=O)COC(=O)c2ccccc2NC(=O)c2ccco2)c2ccccc2N1 | – | inactive: -5.19%
CCCC[C@H](CC)CN=C(N)NC(N)=NCCCCCCN=C(N)NC(N)=NC[C@@H](CC)CCCC | active: 12.6 µM | –
O=C(/C(C=Nc1ccc(Br)cc1)=C(/O)c1ccco1)C(F)(F)F | active: 11.2 µM | –
CCc1cccc(N(C)C(N)=Nc2cccc3ccccc23)c1 | inconclusive: 6.31 µM [cytotoxic, full curve, poor fit] | –
CCCOc1ccc(-c2nc3ccccc3c(=O)o2)cc1 | active: 5.01 µM | –
Cc1cc(N2CCN(C)CC2)nc2ccc(NC(=O)Nc3ccccc3Br)cc12 | active: 12.6 µM | –
CCOC(=O)c1[nH]c2ccc(OC)cc2c1NC(=S)N1CCN(c2cccc(C)c2C)CC1 | inconclusive: 20 µM [cytotoxic, single point] | –
CCN(c1ccccc1)S(=O)(=O)c1ccc2[nH]cc(C(=O)NC3CCCCC3)c(=O)c2c1 | inconclusive: 10 µM [cytotoxic, partial curve] | –
COc1c(C)cc(S(=O)(=O)Nc2cccc(-c3ccc(N4CCOCC4)nn3)c2)c(C)c1C | – | inconclusive: -33.8% [cytotoxic]
COc1ccc(CCNc2nc(-c3ccc(C)cc3)cc(C(F)F)n2)cc1OC | inconclusive: 12.6 µM [cytotoxic, single point] | –
Cc1cccc(NC(=O)c2oc3c(c2C)-c2[nH]ncc2CC3)c1C | inconclusive: 20 µM [cytotoxic, single point] | –

SMILES | Potency | activity change, negative = cell killing
CCOC(=O)C1CCN(c2c(C(=O)c3ccc(OCC)cc3)cnc3ccc(OC)cc23)CC1 | inconclusive: 15.8 µM [cytotoxic, single point] | –
O=C1[C@H]2[C@H]3[C@H](O)[C@H](O)C/C(=N/OCc4ccccc4)[C@@H]3CC[C@@H]2C(=O)N1c1cccc(Oc2ccccc2)c1 | – | inactive: 7% [at 9.22 µM]
O=C(O)/C=C\C(=O)Nc1ccccn1 | – | inactive: -0.515% [at 9.22 µM]
Cc1cccc(N2CCN(C(=O)c3cc4c(=O)n(C)c5ccccc5c4n3C)CC2C)c1 (stereo not drawn) | inconclusive: 20 µM [cytotoxic, single point] | –
COc1cccc(NC(=O)CSc2cc(=O)n(C)c3ccc(Cl)cc23)c1 | – | inactive: -18.7%
CCOc1ccccc1C(=O)Nc1ccc2nc3c(c(Nc4ccc(OC)c(OC)c4)c2c1)CCCC3 | inconclusive: 11.2 µM [cytotoxic, partial curve] | –
Cc1cccc(OC(=O)c2cc(-c3ccc4c(c3)OCCO4)on2)c1C | inconclusive: 25.1 µM [cytotoxic, single point] | –
O=C(Nc1cccc(C(=O)Nc2ccc(S(=O)(=O)O)c3cc(S(=O)(=O)O)cc(S(=O)(=O)O)c23)c1)Nc1cccc(C(=O)Nc2ccc(S(=O)(=O)O)c3cc(S(=O)(=O)O)cc(S(=O)(=O)O)c23)c1 | inactive | –
O=C(c1cnccn1)N1CCC2(CCCN(C(c3ccccc3)c3ccccc3)C2)CC1 | inconclusive: 31.6 µM [cytotoxic, single point] | –
Cc1ccc(S(=O)(=O)NCC(Nc2cccc(Cl)c2)c2ccccc2)cc1 (stereo not drawn) | active: 15.8 µM | –
Cc1ccc(S(=O)(=O)NCC(c2ccc(N(C)C)cc2)N2CCc3ccccc32)cc1 (stereo not drawn) | – | inactive: 9.34%
c1ccc(-c2onc3cc4c(cc23)OCCO4)cc1 | inconclusive: 12.6 µM [cytotoxic, partial curve] | –
CCOc1ccccc1NC(=O)CSC1=Nc2ccccc2C2=NC(CC(=O)NCc3ccc4c(c3)OCO4)C(=O)N12 (stereo not drawn) | inconclusive: 10 µM [cytotoxic, partial curve] | –
CC1=CC(C)(C)Nc2ccc(OC(=O)CN3C(=O)CCC3=O)cc21 | active: 15.8 µM | –
Cc1ccc(CN2c3ccccc3-c3nc(SCC(=O)Nc4c(C)cc(C)cc4C)ncc3S2(=O)=O)cc1 | inconclusive: 25.1 µM [cytotoxic, single point] | –
CCCOc1ccc(C2c3c(-c4ccccc4O)n[nH]c3C(=O)N2Cc2cccnc2)cc1 (stereo not drawn) | active: 12.6 µM | –
